Measurements published in patent US20200048324A1 (SURROZEN OPERATING, published 2020).

Biological target: T1, human asialoglycoprotein receptor 1 (ASGR1) (human, UniProt P07306 1-291)
T1 sequence (looked up): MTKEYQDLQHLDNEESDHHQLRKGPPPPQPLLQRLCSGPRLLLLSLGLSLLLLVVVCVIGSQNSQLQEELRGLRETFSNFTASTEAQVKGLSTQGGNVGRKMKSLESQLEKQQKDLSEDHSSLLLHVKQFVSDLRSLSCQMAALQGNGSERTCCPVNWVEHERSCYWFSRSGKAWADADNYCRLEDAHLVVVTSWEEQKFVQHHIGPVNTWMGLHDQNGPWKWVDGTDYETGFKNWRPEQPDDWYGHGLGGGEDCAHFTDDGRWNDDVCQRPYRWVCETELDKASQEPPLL
Experiment: cell-based or functional assay

B1: anti-ASGR1, Rspo2 (F105A/F109A) (scFv)
chain: [skipping about 100 residues]DFSSRRWYLEYWGQGTLVTVSSGGGGSGGGGSGGGGSELTQDPAVSVALGQTVRITCQGDSLRSYYASWYQQKPGQAPVLVIYGKNNRPSGIPDRFSGSSSGNTASLTITGAQAEDEADYYCNSLERIGYLSYVFGGGTKLTVLGSGGSNPICKGCLSCSKDNGCSRCQQKLFFFLRREGMRQYGECLHSCPSGYYGHRAPDMNRCARCRIENCDSCASKDACTKCKVGFYLHRGRCFDECPDGFAPLEETMECVEGGDYKDDDDKGSHHHHHHHH
  STF reporter activity of purified protein, Huh-7 cells: ~3 fold
  luciferase activity, Super Top Flash (STF) Wnt reporter, Huh-7 cells, transient transfection, versus mock transfection: ~20 fold
